# Measurements from paper PMC4336329 (PLoS ONE, 2015).
# Out of some 310,000 compounds screened, about 2,200 (0.71%) showed an effect of 50% or more. Effects have a minus sign here. The list shows a part of the results.
# Biological target: human ether-à-go-go-related gene (hERG) potassium channel (human, UniProt Q12809)
# Assay: primary screen, population patch clamp on CHO cells stably expressing hERG
# Sequence of human ether-à-go-go-related gene (hERG) potassium channel (Q12809 whole entry, looked up): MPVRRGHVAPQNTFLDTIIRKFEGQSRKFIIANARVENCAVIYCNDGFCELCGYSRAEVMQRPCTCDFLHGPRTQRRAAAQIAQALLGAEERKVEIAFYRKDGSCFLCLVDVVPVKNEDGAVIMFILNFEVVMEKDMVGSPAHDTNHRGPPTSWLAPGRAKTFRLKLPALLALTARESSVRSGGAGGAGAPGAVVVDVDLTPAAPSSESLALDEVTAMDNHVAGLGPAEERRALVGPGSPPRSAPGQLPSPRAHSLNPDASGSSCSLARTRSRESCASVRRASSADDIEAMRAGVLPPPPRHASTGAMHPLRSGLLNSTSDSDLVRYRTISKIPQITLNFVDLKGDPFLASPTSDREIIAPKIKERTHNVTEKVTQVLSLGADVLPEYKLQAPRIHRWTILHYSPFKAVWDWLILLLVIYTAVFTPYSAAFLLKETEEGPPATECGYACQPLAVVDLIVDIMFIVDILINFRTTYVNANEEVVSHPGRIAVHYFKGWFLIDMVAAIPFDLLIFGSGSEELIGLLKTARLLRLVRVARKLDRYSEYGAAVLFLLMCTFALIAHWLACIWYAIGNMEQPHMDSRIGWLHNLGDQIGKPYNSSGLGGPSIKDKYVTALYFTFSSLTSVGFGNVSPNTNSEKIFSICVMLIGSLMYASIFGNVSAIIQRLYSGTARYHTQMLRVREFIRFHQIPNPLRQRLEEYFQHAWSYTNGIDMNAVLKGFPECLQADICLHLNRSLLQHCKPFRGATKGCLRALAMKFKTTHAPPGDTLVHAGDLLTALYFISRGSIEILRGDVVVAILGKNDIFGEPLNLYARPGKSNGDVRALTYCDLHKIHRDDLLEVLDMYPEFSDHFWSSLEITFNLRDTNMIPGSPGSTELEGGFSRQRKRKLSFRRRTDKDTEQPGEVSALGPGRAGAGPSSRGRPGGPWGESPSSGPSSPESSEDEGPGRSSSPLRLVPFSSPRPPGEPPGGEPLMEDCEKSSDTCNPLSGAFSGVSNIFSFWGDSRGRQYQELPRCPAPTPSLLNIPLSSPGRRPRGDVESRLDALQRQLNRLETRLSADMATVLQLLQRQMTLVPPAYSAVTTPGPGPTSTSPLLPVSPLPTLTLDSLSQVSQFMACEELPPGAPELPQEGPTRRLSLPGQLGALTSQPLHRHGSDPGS
row,SMILES,"hERG current change (%, negative = inhibition) at 1uM"
1,COc1ccc2c(c1)C=C([C@@H]1C[C@H]3CN(c4ccccc4)C(=O)[C@]34CCCN14)CO2,-4.08%
2,CC(=O)Nc1ccc(NC(=O)C(NS(=O)(=O)c2ccc3c(c2)OCCO3)C(C)C)cc1 (centres unmarked),4.18%
3,CC(NC(=O)/C(=C/c1cccc([N+](=O)[O-])c1)NC(=O)c1ccco1)C(=O)O (centres unmarked),2.91%
4,COc1cc2c(cc1OC)C(C)N(C(=O)c1cc3c(s1)-c1c(C)cccc1OC3)CC2 (centres unmarked),6.14%
5,CN1CC=C(/C=C/c2ccc(-c3ccccc3)cc2)CC1.Cl,-1.22%
6,Cn1nnc(NC(=S)NC(=O)Cc2ccccc2)n1,2.29%
7,O=c1c2c(-c3ccccc3)csc2ncn1/N=C/c1cccc([N+](=O)[O-])c1O,17.7%
8,C=CCN(c1cccc(C(F)(F)F)c1)S(=O)(=O)c1cccc(C(=O)OCC(=O)Nc2ccccc2)c1,-4.43%
9,Cc1nn(C)cc1C(=O)NNC(=S)Nc1ccccc1,10.7%
10,CCC1(CC)Cc2ccccc2-c2nc(CCl)[nH]c(=O)c21,13.8%
11,O=C(CSc1ncccc1C(=O)O)c1ccccc1F,2.97%
12,COc1ccccc1OCC(=O)Nc1ccccc1C(=O)Nc1cccc(C(=O)O)c1,15.1%
13,C[C@]12CC[C@H](OS(=O)(=O)O)CC1=CC[C@@H]1[C@@H]2CC[C@]2(C)C(=O)CC[C@@H]12.O.[Na],5.88%
14,CN(C)c1nc(-c2ccccc2)[n+](C)s1.[O-][Cl+3]([O-])([O-])[O-],4.46%
15,CCOc1ccc(/C=C(\C)C(=O)c2c(C)cc(C)[nH]c2=O)cc1,8.72%
16,Cc1cccc(OCC(=O)NNC(=O)c2ccc([N+](=O)[O-])cc2)c1,11.8%
17,COc1ccc(-c2[nH]n(-c3ccc([N+](=O)[O-])cc3)c(=O)c2C=NCCN2CCNCC2)cc1,2.86%
18,CCNc1oc(/C=C/c2ccc(OCC)cc2)nc1C#N,15.7%
19,Cc1cc2ncn(CCOc3ccccc3)c2cc1C,8.19%
20,CCCCn1c(N)c(N(CC)C(=O)CN2C(=O)NC(C)(c3ccccc3)C2=O)c(=O)[nH]c1=O (centres unmarked),12.9%
21,CCCC(=O)NC(c1ccco1)c1cc(Cl)c2cccnc2c1O (centres unmarked),17.4%
22,COC(=O)c1cc(C)ccc1OCc1ccc([N+](=O)[O-])cc1,4.34%
23,COc1cc(OC)cc(C(=O)Nc2ccc3c(c2)OCCO3)c1,7.93%

row,SMILES,"hERG current change (%, negative = inhibition) at 1uM"
1,CSc1ccccc1OCc1cc(C(=O)N2CCN(C)C(c3ccccc3)C2)no1 (centres unmarked),5.67%
2,Cn1c(=O)c2c(nc(-n3ccnc3)n2Cc2ccc([N+](=O)[O-])cc2)n(C)c1=O,-10.9%
3,CC(C)(C)NC(=O)CSc1nc(N)c(-c2ccccc2)c(=O)[nH]1,14.9%
4,CCOC(CCn1c(SCC(=O)NC2CCCC2)nc2ccccc2c1=O)OCC,10.8%
5,N#CCN1C(=O)NC2(CCCc3sccc32)C1=O (centres unmarked),10.9%
6,O=C(NC1CCCCC1)c1cc([N+](=O)[O-])ccc1N1CCCC1,5.41%
7,CCC(C)NC(=O)c1cc2cc3ccc(OC)cc3nc2s1 (centres unmarked),5.26%
8,COC(=O)c1ccc(/C=C(\C#N)C(=O)NC(C)c2ccccc2)cc1 (centres unmarked),16%
9,O=C(c1ccccc1)C(O)c1ccccc1 (centres unmarked),9.88%
10,CC(Nc1nc(-c2ccc(F)cc2)cs1)c1nc2cc(Cl)c(Cl)cc2n1CCCO (centres unmarked),13.4%
11,COC(=O)c1ccc(C)c(NC(=O)c2c(-c3ccccc3)noc2C)c1,-6.64%
12,COc1ccc(C)cc1-n1nnnc1SCC(=O)NNC(=O)c1ccc([N+](=O)[O-])cc1,-4.14%
13,O=C(NCc1ccco1)c1cccc2ccccc12,8.21%
14,Cc1ccc(NS(=O)(=O)c2ccc(-n3cccn3)cc2)cc1C,19.4%
15,CCN1C(=O)C(O)(C2COC(C)(C)CC2=O)c2cc(Br)ccc21 (centres unmarked),-0.0769%
16,COc1ccc(NC(=O)C2C3C=CC(C3)C2C(=O)NCc2ccco2)c(OC)c1 (centres unmarked),13.7%
17,CCOC(=O)c1cc(-c2ccccc2C)nn1CC1CC(c2ccc(OC)cc2)=NO1 (centres unmarked),5.77%
18,Cn1cc(CCNC(=O)c2ccc3nc(Cc4ccccc4F)oc3c2)cn1,13.4%
19,CC(=O)c1ccc(OC(C)C)c(Cc2c(O)[nH]c(=S)[nH]c2=O)c1,7.4%
20,O=c1oc2ccccc2n1Cc1cccc(C(F)(F)F)c1,4.88%
21,Nc1ccc(O)cc1,10.2%
22,COc1ccc(/C(O)=C2/C(=O)C(=O)N(CC3CCCO3)C2c2cccc(O)c2)cc1 (centres unmarked),12.9%
23,CN1CCN(S(=O)(=O)c2ccc(NC(=O)COc3ccccc3Cl)cc2)CC1,10.3%

row,SMILES,"hERG current change (%, negative = inhibition) at 1uM"
1,COc1ccc(CCNC(=O)CCCn2nc(C)c([N+](=O)[O-])c2C)cc1OC,9.07%
2,CCn1c(CNC(=O)c2cc(OC)c(OC)c(OC)c2)cc2cc(C)ccc21,15.6%
3,Cl.Fc1ccc(C(c2nnnn2Cc2cccs2)N2CCN(C3CCCC3)CC2)cc1 (centres unmarked),-49.7%
4,CCOc1cnc(-c2ccccc2F)o1,8.13%
5,COC(=O)Cn1c(=NC(=O)CN2C(=O)CCC2=O)sc2cc(S(N)(=O)=O)ccc21,14.3%
6,Nc1nc(N)nc(-c2cc(C(F)(F)F)ccc2Cl)n1,10.9%
7,CCOC(=O)CNC(=O)C(Cc1ccccc1)NS(=O)(=O)c1cccs1 (centres unmarked),1.64%
8,CC(C)C(=O)NNc1nc2ccccc2s1,2.3%
9,COc1ccc(C(=O)N2CCN(c3nnnn3-c3ccccc3)CC2)cc1OC,-3.84%
10,CN(CC(=O)N1CCCC1)S(=O)(=O)c1ccc2ccccc2c1,9.52%
11,COc1ccccc1/C=C/C=N/N1CCN(Cc2ccc(Cl)cc2)CC1.Cl,12.2%
12,O=S(=O)(NCCN1CCOCC1)c1cc(Cl)c(Cl)cc1Cl,15.1%
13,C=CCN(C(=O)c1ccccc1)C1CCS(=O)(=O)C1 (centres unmarked),8.54%
14,O=C(COc1cccc2c1CCNC2=O)Nc1cccc(F)c1,12.4%
15,COc1ccc(O)c(C=Nc2cc(NC(C)=O)c(Cl)cc2Cl)c1,5.64%
16,CCN(CC)c1cc(Oc2ccccc2)ncn1,6.65%
17,Cc1cc2c(OCC(O)CNC3CCCCC3)cccc2[nH]1 (centres unmarked),13%
18,Cc1cc(SCC#N)nc2ccccc12,6.69%
19,COCCC(=O)N1CCC(Oc2ccc(C(=O)NCCc3cnn(C)c3)cc2)CC1,14.3%
20,CCCOc1ccc(C(C)=O)cc1CN1CCOCC1.Cl,3%
21,CCC(C)(C)NC(=O)C(c1ccccc1)N(Cc1cccnc1)C(=O)c1csnn1 (centres unmarked),9.71%
22,CN(CCc1ccccn1)C(=O)Nc1ccc(F)cc1,13.4%
23,Cc1noc(C)c1C(=O)N(C)Cc1ccccc1,15.6%

row,SMILES,"hERG current change (%, negative = inhibition) at 1uM"
1,COc1ccc(N(CC(=O)NC(C)C)S(=O)(=O)c2ccc(NC(C)=O)cc2)cc1,1.39%
2,CCOC(=O)C1=C(C)NC(=O)NC1c1cc(C)sc1C (centres unmarked),11.1%
3,CC(C)c1ccc(CC(C)C2C3=C(CCCC3=O)OC3=C2C(=O)CCC3)cc1 (centres unmarked),6.33%
4,O=C1CC(c2cccc(Cl)c2)C(n2cncn2)C(=O)C1C1NCCc2ccccc21 (centres unmarked),3.48%
5,Cc1ccc(S(=O)(=O)NCCNS(=O)(=O)c2ccc(C)cc2)cc1,14.6%
6,COc1ccc(C(=O)NCCCNC(=O)c2cccnc2)cc1OC,12%
7,Cl.O=C1OC(CN2CCOCC2)CN1N=Cc1ccc([N+](=O)[O-])o1 (centres unmarked),4.56%
8,CC(C)CNC(=O)[C@@H]1CSC2c3ccccc3C(=O)N21 (some centres unmarked),4.61%
9,Cn1nc(C(=O)Oc2cc(=O)n(C)c3ccccc23)c2ccccc2c1=O,19.2%
10,CCn1c(SCC(=O)Nc2ccc3c(c2)n(C)c(=O)n3C)nnc1-c1ccncc1,7.57%
11,O=C(CC1C(=O)NCCN1Cc1ccccc1C(F)(F)F)NCCN1CCCCC1=O (centres unmarked),15.4%
12,COC(CN(C)S(=O)(=O)c1cc2c3c(c1)CCC(=O)N3CCC2)OC,16.2%
13,N#Cc1c(N)nc2c(c1-c1ccncc1)CCCCC2,5.34%
14,CCn1nnnc1SCC(=O)N1CCOCC1,13.9%
15,O=C(O)c1ccc(Cl)c(S(=O)(=O)N(Cc2ccccc2)c2ccccc2)c1,10.1%
16,CCCc1cc(=O)[nH]c(SCc2nc3ccc([N+](=O)[O-])cc3[nH]2)n1,10.9%
17,Cn1cc([N+](=O)[O-])c(C(=O)Nc2ccn(C34CC5CC(CC(C5)C3)C4)n2)n1,-3.5%
18,COCCCNC(=O)CSc1nc2ccc(N3CCOCC3)cc2c(=O)n1CCc1ccccc1,-23.2%
19,CC(C)COC(=O)NCCCOC(=O)Nc1ccccc1,8.14%
20,c1ccc(-c2nc3ccccc3[nH]2)nc1,14.4%
